Experimental data published in the supplement of paper PMC10126150.
Values marked as one replicate rest on one cluster of the flow cell; about a third of the high ones do not repeat.

Test system: ATP
Experiment: switch fluorescence ratio, 500 uM ATP over buffer (Cy3 cluster intensity, sum of 5 cycles each) (fold (ratio)); higher = stronger signal-on switching upon ATP binding; sequences stand for … in TCGTCGGCAGCGTCAGATGTGTATAAGAGACAGTTTTTTTTTTTTTTTTTTTTTTTTT…TC
Conditions: aptamer strand: ATP DNA aptamer (quencher-CACCTGGGGGAGTATTGCGGAGGAAGG + anchor), 100 nM annealed; ATP concentration: 500 uM; one replicate
How it was run: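 Switching-strand clusters labelled with Cy3 on a modified Illumina MiSeq flow-cell were annealed to 100 nM quencher-labelled ATP aptamer, imaged in selection buffer, and re-imaged after 15 min with 500 uM ATP at 22 °C. This was done over five cycles with NaOH stripping and re-annealing in between. The fluorescence ratio is summed target-cycle over summed buffer-cycle Cy3 intensity per cluster, averaged per switch-domain sequence, excluding clusters outside 100-1000 RFU.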
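Further: ATP exposure 15 min at 22 °C before imaging.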

Sequence	switch fluorescence ratio
AAGATGCAAC	1.05
ATCGGGCGT	0.966
GTCAGTTACG	1.08
CAGTGCGTAG	1.03
GCAATCTCAA	2.23
AGCTCTCTGT	1.03
TCGGGAAGAA	1.01
GTAATTTGAG	0.985
CAGATTCAGC	1.02
CACGCCCTAG	1.11
GTTGCCGTTC	0.914
ATAACTTGCT	1.01
TCAATGTCGG	0.965
CTATAAATG	1
AGGGGTTGCA	0.952
CTTGCTTTTG	1.01
AAATGAAGTG	1.04
TGCTGTGTCG	1.04
CCTATAAGTC	1.03
ACGAAGGCGA	1.03

Sequence	switch fluorescence ratio
GCTCTCTGAA	1.03
GAGGCTGCGC	1.04
GCAGTGAATA	1.04
GGTCGTGGTC	1.01
GGCACTACGC	1.09
CGCTAGGAAC	1.11
ATTGATATCT	1.03
CCTGGTCGTA	0.984
AAGTTGCAAT	1.08
GGCATAAACG	1.31
ATTGTTTCGT	0.988
GCGGGTCTTT	1.03
TCGGTAAATC	1.05
TGAAGCTCGT	1.02
TCTTACGGCG	1
TCGATATCCG	0.929
CCACAGTAA	1.92
CATTGCAGTC	1.12
TAGGCGGGT	0.987
TCACCTTGCT	1.34

Sequence	switch fluorescence ratio
TAAAGTCCGC	1.15
GCTGTGAGGG	1
ATTGTGTTCG	0.971
TCCATACTGT	1.05
CTTTGTGTCT	1.05
GGACACCGAG	1.06
AAGATATGCG	0.995
ACCTTTTCTG	1.03
TTCTCCTGTT	1.01
TGCACTTTGT	0.965
CTCGACGTGA	1.24
TCGATATCG	0.985
TGGCTGTCGG	1.01
TTTGATAGCT	0.977
AAATTTCCCT	0.962
TCCATTTGTA	0.969
TGCTAGATCC	0.976
AATATCCGTG	0.969
TATTGTGTCC	0.975
